Source: PubChem BioAssay (NCATS)
Inconclusive means that the source gave no clear call. Such entries were picked first, then a sample of the others. For some of these results: Potencies of inconclusive entries are doubtful fits and often do not repeat. Activity calls are given as the source filed them. The call rests on the fitted dose curve; in most records, active means well fitted curve in the direction sought with a large enough effect; inconclusive means small, poorly fitted or top-dose-only effect, or another doubt; inactive means no such curve, though single readings can be large; an effect the other way counts as inactive or inconclusive.

Legend:
[1] = qHTS of pediatric cancer cell lines to identify multiple opportunities for drug repurposing: Primary screen for BT-37 cells (AID 1347094); further: potency means the concentration at half of the fitted maximal effect
Procedure, shortened: (§1)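 Primary screen of approved and investigational compounds on cells in growth media at 37 degrees C, 5% CO2. MIPE set at 11-point and NPC set at 8-point dilutions; viability scored by ATP-based luminescence at 48 hours.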

[2] = qHTS of pediatric cancer cell lines to identify multiple opportunities for drug repurposing: Primary screen for NB1643 cells (AID 1347099); settings: NB1643 neuroblastoma viability, CellTiter-Glo luminescence, 48 h; activity change, negative = cytotoxic: at 46 µM (top of the series); further: potency means the concentration at half of the fitted maximal effect; nearly all actives have a fitted effect of over 50% in size
Procedure, shortened: as §1

[3] = qHTS of pediatric cancer cell lines to identify multiple opportunities for drug repurposing: Primary screen for BT-12 cells (AID 1347101);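 further: plate controls were DMSO for no effect and bortezomib positive control for full effect; nearly all actives have a fitted effect of over 25% in size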
Procedure, shortened: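 Cells (500-1,000/well) rested 5 h, then received compounds for 48 h; metabolically active cells were measured by CellTiter-Glo luminescence. Final concentrations spanned up to 46 µM (MIPE, 11-point) or 0.59 nM-46 µM (NPC, 8-point) in primary screens, 11-point in follow-ups.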

[4] = qHTS of pediatric cancer cell lines to identify multiple opportunities for drug repurposing: Primary screen for Rh41 cells (AID 1347108);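 further: luminescence drop marks cytotoxic hits; nearly all actives have a fitted effect of over 70% in size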
Procedure, shortened: as §1

[5] = qHTS of pediatric cancer cell lines to identify multiple opportunities for drug repurposing: Confirmatory screen for NB1643 cells (AID 1347109); further: potency means the concentration at half of the fitted maximal effect; nearly all actives have a fitted effect of over 45% in size
Procedure, shortened: (§2)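 Viability after 48 h compound treatment at 37C, 500-1,000 cells/well, read as ATP luminescence with CellTiter-Glo. Primary screens used 11-point (MIPE, 0.78 nM-46 µM) or 8-point (NPC, 0.59 nM-46 µM) final concentrations; follow-up screens used 11-point dilutions.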

[6] = qHTS of pediatric cancer cell lines to identify multiple opportunities for drug repurposing: Confirmatory screen for SK-N-MC cells (AID 1347111);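 further: potency means the concentration at half of the fitted maximal effect; cells exposed to compound for 48 h before the readout; nearly all actives have a fitted effect of over 70% in size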
Procedure, shortened: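 SK-N-MC cells at 500-1,000 cells/well in growth media were pre-incubated 5 h, then exposed to compounds at 11-point dilutions for 48 h at 37 degrees C, 5% CO2. Viability was read as CellTiter-Glo luminescence.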

[7] = qHTS of pediatric cancer cell lines to identify multiple opportunities for drug repurposing: Confirmatory screen for BT-12 cells (AID 1347112); further: potency means the concentration at half of the fitted maximal effect; nearly all actives have a fitted effect of over 55% in size
Procedure, shortened: as §2

[8] = qHTS of pediatric cancer cell lines to identify multiple opportunities for drug repurposing: Confirmatory screen for DAOY cells (AID 1347114); further: on the % scale 0 is the no-effect control and ±100 the full control effect; nearly all actives have a fitted effect of over 65% in size
Procedure, shortened: (§3)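 Viability measured as metabolically active cells via CellTiter-Glo luminescence following 48 hours of compound exposure, 11-point dilutions in confirmatory testing. 500-1,000 cells/well plated 5 hours before dosing; controls were DMSO and 2.3 µM bortezomib.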

[9] = qHTS of pediatric cancer cell lines to identify multiple opportunities for drug repurposing: Confirmatory screen for SJ-GBM2 cells (AID 1347116); further: potency means the concentration at half of the fitted maximal effect; nearly all actives have a fitted effect of over 60% in size
Procedure, shortened: as §3

[10] = qHTS of pediatric cancer cell lines to identify multiple opportunities for drug repurposing: Confirmatory screen for BT-37 cells (AID 1347117); further: potency means the concentration at half of the fitted maximal effect; nearly all actives have a fitted effect of over 55% in size
Procedure, shortened: as §2

[11] = qHTS of pediatric cancer cell lines to identify multiple opportunities for drug repurposing: Confirmatory screen for TC32 cells (AID 1347118); further: on the % scale 0 is the no-effect control and ±100 the full control effect; nearly all actives have a fitted effect of over 65% in size
Procedure, shortened: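 qHTS, TC32, 48 h drug treatment, CellTiter-Glo luminescence as a proxy for metabolically active cells; primary top concentration 46 µM (MIPE 11-pt, NPC 8-pt); confirmatory 11-pt.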

[12] = qHTS of pediatric cancer cell lines to identify multiple opportunities for drug repurposing: Confirmatory screen for MG 63 (6-TG R) cells (AID 1347119); settings: MG-63 (6-TG resistant) osteosarcoma viability; activity change, negative = cytotoxicity: at 45.9 µM (top of the series); further: potency means the concentration at half of the fitted maximal effect; nearly all actives have a fitted effect of over 55% in size
Procedure, shortened: as §2

[13] = qHTS of pediatric cancer cell lines to identify multiple opportunities for drug repurposing: Confirmatory screen for U-2 OS cells (AID 1347122);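 further: plate controls were DMSO for no effect and bortezomib for full effect; nearly all actives have a fitted effect of over 65% in size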
Procedure, shortened: as §2

[14] = qHTS of pediatric cancer cell lines to identify multiple opportunities for drug repurposing: Confirmatory screen for Rh41 cells (AID 1347123);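 further: 48 h compound exposure; plate controls were DMSO for no effect and bortezomib for full effect; nearly all actives have a fitted effect of over 60% in size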
Procedure, shortened: as §2

[15] = qHTS of pediatric cancer cell lines to identify multiple opportunities for drug repurposing: Confirmatory screen for RD cells (AID 1347124);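 further: potency means the concentration at half of the fitted maximal effect; cells exposed to compound for 48 h before viability readout; nearly all actives have a fitted effect of over 65% in size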
Procedure, shortened: as §2

[16] = qHTS of pediatric cancer cell lines to identify multiple opportunities for drug repurposing: Confirmatory screen for Rh30 cells (AID 1347126); further: potency means the concentration at half of the fitted maximal effect; nearly all actives have a fitted effect of over 55% in size
Procedure, shortened: as §2

[17] = qHTS of pediatric cancer cell lines to identify multiple opportunities for drug repurposing: Confirmatory screen for Saos-2 cells (AID 1347127); further: potency means the concentration at half of the fitted maximal effect; nearly all actives have a fitted effect of over 60% in size
Procedure, shortened: as §2

[18] = qHTS of pediatric cancer cell lines to identify multiple opportunities for drug repurposing: Confirmatory screen for OHS-50 cells (AID 1347128)
Procedure, shortened: as §2

[19] = Primary qHTS for inhibitors of nuclear receptor binding SET domain protein 2 (NSD2) in an isogenic RCH-ACV NSD2 p.E1099K mutant (9B) (AID 1645876); settings: activity change, negative = viability loss: at 44.9 µM (top of the series) unless noted; further: potency means the concentration at half of the fitted maximal effect; nearly all actives have a fitted effect of over 70% in size
[20] = Primary qHTS for inhibitors of nuclear receptor binding SET domain protein 2 (NSD2) in an RCH-ACV wild type WT cells (2C) (AID 1645877); settings: activity change, negative = cell killing: at 44.9 µM (top of the series) unless noted; further: potency means the concentration at half of the fitted maximal effect; nearly all actives have a fitted effect of over 70% in size
HaCat = assay: Cytotoxic Profiling of Annotated Libraries Using Quantitative High-Throughput Screening (AID 1296008); settings: Five cell lines viability, CellTiter-Glo ATP luminescence, 48-72 h; max response: stronger effect = lower value; further: on the % scale 0 is the no-effect control and ±100 the full control effect; nearly all actives have a fitted effect of over 60% in size
Procedure, shortened: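 Cells exposed to compounds for 48 or 72 hr at 37 degrees Celsius. Viability read as ATP-coupled luminescence with CellTiter-Glo after 10 min at room temperature.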

Tov112D = assay: Primary qHTS to identify gynecologic anti-cancer compounds using libraries of approved drugs and bioactive compounds (AID 1345084); settings: Gynecologic cancer cell panel viability, ATPlite luminescence, 48 h; series mostly up to 57.5 µM
Procedure, shortened: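 Cells, 1,000 per well, plated 16 h, then exposed 48 h at 37 C to compounds. Viability by ATPlite luminescence after 15 min at room temperature.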
Tags describe the fitted curve by direction and shape.

COc1cc(/C=C/C(N)=O)cc(OC)c1OC
active: Potency [1] 0.001 µM
inconclusive: Potency [2] 0.001 µM [cytotoxic, full curve] | Potency [5] 26.1 µM [cytotoxic, single point] | Potency [6] 36.9 µM [cytotoxic, single point] | Potency [7] 36.9 µM [cytotoxic, single point] | Potency [9] 36.9 µM [cytotoxic, single point] | Potency [10] 32.9 µM [cytotoxic, single point] | Potency [12] 32.9 µM [cytotoxic, single point] | Potency [15] 36.9 µM [cytotoxic, single point] | Potency [16] 29.3 µM [cytotoxic, single point] | Potency [17] 36.9 µM [cytotoxic, single point] | Potency [19] 23.7 µM [inhibitor, single point] | Potency [20] 18.8 µM [inhibitor, partial curve, poor fit]
inactive: Potency [3] | Potency [4] | Potency [8] | Potency [11] | Potency [13] | Potency [14] | Potency [18] | max response (HaCat) 2.61% | Potency (Tov112D)
